In a collection of fitness landscapes (doi:10.1016/j.celrep.2020.107928):
The full ranking holds about 81,000 sequences; the median of “one-hybrid fitness for binding NBS DNA” is about -0.1, and the highest 2% start at about 0.36. The list shows a part of the results.

B1: Caulobacter ParB omega fusion; a variant is named by its letters at X, in order, B8GW30 (parent)
chain: MESVVVGEPGMSEGRRGLGRGLSALLGEVDAAPAQAPGEQLGGSREAPIEILQRNPDQPRRTFREEDLEDLSNSIREKGVLQPILVRPSPDTAGEYQIVAGERAWRAAQRAGLKTVPIMVRELDDLAVLEIGIIENVQRADLNVLEEALSYKVLMEKFERTQENIAQTIGKSXSHVANXMRLLXLPDEVQSYLVSGELTAXHARAIAAAADPVALAKQIIEGGLSVRETEALARKAPNLSAGKSKGGRPPRVKDTDTQALESDLSSVLGLDVSIDHRGSTGTLTITYATLEQLDDLCNRLTRGI

Variants of: B1
Experiment: one-hybrid fitness for binding NBS DNA (the Noc-binding site; scaled: cognate 1, non-cognate 0); higher = stronger binding
Conditions: with NBS DNA site
How it was run: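 On M9-minus-histidine containing 0.1 mM IPTG and 5 mM 3-AT, E. coli USO cells with a HIS3 reporter, site 19 bp from the promoter, grew 48 hours at 37°C to select Caulobacter ParB libraries randomised at four specificity codons. Plasmids from before and after were Illumina-sequenced, with three replicate libraries pooled and variants under 10 reads left out. Fitness is the log change in variant-to-wild-type read ratio, rescaled against cognate and non-cognate.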

Variant	one-hybrid fitness for binding NBS DNA
NTEP	≤ 0.2
GQTV	≤ 0.2
HMVT	≤ 0.2
RNVV	≤ 0.2
YSRG	≤ 0.2
AETF	≤ 0.2
ITNV	≤ 0.2
HPRW	≤ 0.2
THIY	≤ 0.2
LRSY	≤ 0.2
TGDR	≤ 0.2
IHER	≤ 0.2
GVLS	≤ 0.2
LRRS	0.303
VATQ	≤ 0.2
MEYY	≤ 0.2
THIP	≤ 0.2
SKPE	≤ 0.2
SECF	≤ 0.2
VRFL	≤ 0.2
HELT	≤ 0.2
TFKL	≤ 0.2
YMSR	≤ 0.2
RQQG	≤ 0.2
PSLG	≤ 0.2

Variant	one-hybrid fitness for binding NBS DNA
SRIW	≤ 0.2
TSCT	≤ 0.2
EHYS	≤ 0.2
RLTD	≤ 0.2
SGFM	≤ 0.2
SNQY	≤ 0.2
AFRA	≤ 0.2
YSYC	≤ 0.2
QMEC	≤ 0.2
FTLM	≤ 0.2
RREN	≤ 0.2
AHNM	≤ 0.2
QTSE	≤ 0.2
SMLF	≤ 0.2
TMVC	≤ 0.2
RAFD	≤ 0.2
CALR	≤ 0.2
QGRK	≤ 0.2
PNSN	≤ 0.2
VLIV	≤ 0.2
SVFG	≤ 0.2
QCID	≤ 0.2
VLER	≤ 0.2
KQQR	≤ 0.2
ANRR	≤ 0.2

Variant	one-hybrid fitness for binding NBS DNA
TSVY	≤ 0.2
LYMF	≤ 0.2
DVST	≤ 0.2
PPER	≤ 0.2
LVMS	≤ 0.2
PAWA	≤ 0.2
KLAF	≤ 0.2
MSFP	≤ 0.2
CVNP	≤ 0.2
AVDW	≤ 0.2
QDSG	≤ 0.2
QDTF	≤ 0.2
IYMF	≤ 0.2
PRQS	≤ 0.2
TPSP	≤ 0.2
ANPR	≤ 0.2
GTHL	≤ 0.2
LCAH	≤ 0.2
QPWH	≤ 0.2
IKRQ	≤ 0.2
FGSA	≤ 0.2
TVTQ	≤ 0.2
PDLQ	≤ 0.2
LSRM	≤ 0.2
QWQV	≤ 0.2

Variant	one-hybrid fitness for binding NBS DNA
QPVS	0.202
MGNT	≤ 0.2
NPQM	≤ 0.2
TRYP	≤ 0.2
TAIE	≤ 0.2
ECHG	≤ 0.2
KATT	≤ 0.2
GISV	≤ 0.2
PWGN	≤ 0.2
RTTL	≤ 0.2
AFES	≤ 0.2
YTQP	≤ 0.2
TLSS	≤ 0.2
LRRI	≤ 0.2
VGAT	≤ 0.2
QQPE	≤ 0.2
LVAE	≤ 0.2
DVGP	≤ 0.2
PAKS	≤ 0.2
HIFL	≤ 0.2
DWSM	≤ 0.2
TMAW	≤ 0.2
DFDR	≤ 0.2
VSTW	≤ 0.2
TDNV	≤ 0.2

Variant	one-hybrid fitness for binding NBS DNA
QFHD	≤ 0.2
SSCE	≤ 0.2
LRPP	≤ 0.2
LPKY	≤ 0.2
QQGK	≤ 0.2
PSKI	≤ 0.2
GCEA	≤ 0.2
DGSQ	≤ 0.2
DFHT	≤ 0.2
GRPL	≤ 0.2
RQPF	≤ 0.2
AAHR	≤ 0.2
WTYL	≤ 0.2
QTKE	0.378
RQQL	≤ 0.2
CNIY	≤ 0.2
GNKV	≤ 0.2
GMRY	≤ 0.2
RQHT	0.417
LRWS	≤ 0.2
ELGD	≤ 0.2
CRTW	≤ 0.2
YFCR	≤ 0.2
VGDT	≤ 0.2
QCKI	0.405

Variant	one-hybrid fitness for binding NBS DNA
CKCF	≤ 0.2
QDFV	≤ 0.2
TFPW	≤ 0.2
CNNS	≤ 0.2
QHRV	0.378
VLTT	≤ 0.2
PWLM	≤ 0.2
SSPY	≤ 0.2
FFRG	≤ 0.2
HHLA	≤ 0.2
NDIG	≤ 0.2
QHWS	0.263
TGWT	≤ 0.2
CMKV	≤ 0.2
RTEH	≤ 0.2
ARNQ	≤ 0.2
QVSM	≤ 0.2
KRPM	≤ 0.2
ARGR	≤ 0.2
SIQC	≤ 0.2
AQFG	≤ 0.2
IFLF	≤ 0.2
SLKV	≤ 0.2
RYGC	≤ 0.2
TFRS	≤ 0.2

Variant	one-hybrid fitness for binding NBS DNA
STKL	≤ 0.2
PSTQ	≤ 0.2
HPPN	≤ 0.2
LSRE	≤ 0.2
GHSS	≤ 0.2
NHRT	≤ 0.2
SPTP	≤ 0.2
NEAC	≤ 0.2
THPD	≤ 0.2
RHLC	≤ 0.2
MPYL	≤ 0.2
YRMN	≤ 0.2
ERHM	≤ 0.2
WSCE	≤ 0.2
RMSA	≤ 0.2
QVHP	≤ 0.2
NNYR	≤ 0.2
PFNP	≤ 0.2
RYFW	≤ 0.2
NSSF	≤ 0.2
HLRP	≤ 0.2
RTMM	≤ 0.2
MVYS	≤ 0.2
QAPR	0.275
YSTW	≤ 0.2

Variant	one-hybrid fitness for binding NBS DNA
QHNW	≤ 0.2
FRMA	≤ 0.2
TVKL	≤ 0.2
DRLS	≤ 0.2
NYAL	≤ 0.2
CQKS	≤ 0.2
IRGT	0.23
IMSE	≤ 0.2
RYDR	0.207
SQDY	≤ 0.2
HAST	≤ 0.2
LQFE	≤ 0.2
WSQC	≤ 0.2
QTHG	0.234
CFTP	≤ 0.2
DIFL	≤ 0.2
HYIG	≤ 0.2
QYGG	≤ 0.2
KTVQ	≤ 0.2
LCGG	≤ 0.2
